Test results published in ChEMBL document CHEMBL1201862, “PubChem BioAssay data set” (2004).

The compounds below were run on NCI-H322M (assay: NCI tumour cell line growth inhibition, 48 h).
`CC1(C)CN=C(Nc2ccc(F)c(Cl)c2)S1` was tested, and the GI50 was inactive: > 100 µM.
`Cn1c([N+](=O)[O-])cnc1CN1CCN(CCO)CC1` was tested, and the GI50 was inactive: > 100 µM.
With `CCOc1cc2c(c(OCC)c1O)CC[C@@H]1[C@@H]2CC[C@]2(C)[C@@H](O)CC[C@@H]12` the GI50 was inactive: 5.71 µM.
`O=C1CCC(Cc2ccc(Cl)cc2Cl)C(=O)N1` (centres undefined) was tested, and the GI50 was inactive: > 100 µM.
`NNC(=O)C(=O)N/N=C1\CCC(=O)CC1C(=O)CCC(=O)Nc1ccc(Cl)cc1` (centres undefined) was tested, and the GI50 was inactive: > 100 µM.
With `CCCCCCc1cc2cc(-c3cn4ccccc4n3)c(=O)oc2cc1O` the GI50 was inactive: 36 µM.
`COc1cc(CC(C(=O)O)C(=O)O)c(OC)cc1CC(C(=O)O)C(=O)O` was tested, and the GI50 was inactive: > 100 µM.
In the case of `NCc1c(C(N)=O)ncn1Cc1ccccc1`, the GI50 is reported as inactive: > 100 µM.
With `COc1cc2c3cc1Oc1c(OC)c(OC)cc4c1C(Cc1ccc(O)c(c1)-c1cc(ccc1OC)CC3N(C)CC2)N(C)CC4` (centres undefined) the GI50 was inactive: 23.9 µM.
`CCOC(=O)C(=O)Nc1cccc(Cl)c1C` was tested, and the GI50 was inactive: > 100 µM.
In the case of `CC(C)(/C=N/O)/[N+]([O-])=C/c1ccccc1`, the GI50 is reported as inactive: > 100 µM.
`CCc1c2c([nH]c(=S)c1C#N)CCC2` was tested, and the GI50 was inactive: > 100 µM.
`COc1ccc(/C=C(\C(C)=O)C(=O)Nc2ccccc2)cc1` was tested, and the GI50 was inactive: > 100 µM.
`CCOP(=O)(OCC)C(F)(F)c1ccc(CC(NC(=O)OC(C)(C)C)C(=O)O)cc1` (centres undefined) was tested, and the GI50 was inactive: > 10 µM.
With `O=[N+]([O-])c1ccc(O)c(/C=N/NC(=S)N2CCCCC2)c1` the GI50 was inactive: 1.26 µM.
`COc1cc(C=O)cc(/C=N/n2c3ccccc3c3ccccc32)c1O` was tested, and the GI50 was inactive: 19.6 µM.
In the case of `O=C1C=CC(=O)c2ccc(=O)ccc21`, the GI50 is reported as inactive: 16.5 µM.
With `C/C(CC(O)(C(F)(F)F)C(F)(F)F)=N\NC(N)=O` the GI50 was inactive: > 10 µM.
With `CCCCCCCC(CC(=O)NC(CO)C(=O)NC(CO)CC(C)C)OC(=O)CC(CCCCCCC)OC(=O)CC(CCCCCCC)OC1OC(C)C(O)C(OC2OC(C)C(O)C(O)C2OC(C)=O)C1O` (centres undefined) the GI50 was inactive: 11.3 µM.
`N#Cc1c(N)nc2c(/N=N\c3ccccc3)c(N)nn2c1Nc1ccccc1` was tested, and the GI50 was inactive: 8.15 µM.
In the case of `S=C(NCCc1ccccn1)N/N=C/c1ccccn1`, the GI50 is reported as active: < 0.018 µM.
With `O=C(c1ccc(Cl)cc1)N(C(=S)N1CCN(c2ccccn2)CC1)C1CCCCC1` the GI50 was inactive: 45.3 µM.
For `CC(C)(C)OC(=O)NCCCCC(N)NC(=O)c1ccccc1` (centres undefined), the GI50 was inactive: > 100 µM.
In the case of `C=C1C=CC2(Br)OC3CC(C)(Cl)C(Br)CC13C2(C)C` (centres undefined), the GI50 is reported as inactive: 31.4 µM.
In the case of `COc1ccc(C(=O)C(c2ccc(OC)cc2)C2(O)C(=O)Nc3ccc([N+](=O)[O-])cc32)cc1` (centres undefined), the GI50 is reported as inactive: > 100 µM.
For `CC(=O)OC1C2CCC3C(C)(O)C4CC(O)C(C)(C)C4(O)C(O)CC13CC2(C)O` (centres undefined), the GI50 was inactive: > 100 µM.
In the case of `N#Cc1cccc(-n2[nH]c(=O)ccc2=O)c1`, the GI50 is reported as inactive: > 100 µM.
With `CCOC(=O)C(C(=S)SC)c1nn2c(=O)cc(C)nc2s1` (centres undefined) the GI50 was inactive: 20.6 µM.
In the case of `CCOc1ccc(N/C(Cl)=C(Cl)\C(=C(\Nc2ccc(OCC)cc2)n2nnc3ccccc32)[N+](=O)[O-])cc1`, the GI50 is reported as inactive: 28.8 µM.
For `C(CCCCc1nnc(N2CCCCC2)o1)CCCc1nnc(N2CCCCC2)o1`, the GI50 was inactive: > 100 µM.
`CCOC(=O)c1c(-c2cccc(Cl)c2)c(C(=O)OC)c(C)c2sc(C=O)nc12` was tested, and the GI50 was inactive: 14.9 µM.
In the case of `Cc1nc2sccn2c1C(=O)NC(=O)Nc1ccc(Cl)cc1`, the GI50 is reported as inactive: > 100 µM.
In the case of `COc1ccccc1OC(=O)/C=C/c1ccccc1`, the GI50 is reported as inactive: > 100 µM.
`COc1cc(C2C(Cl)C(=O)N2n2cnc3ccccc3c2=O)ccc1O` (centres undefined) was tested, and the GI50 was inactive: > 100 µM.
For `C/C(=N\Nc1nc2ccccc2n1C)c1cnccn1`, the GI50 was active: 0.307 µM.
`CC(C)(C)OC(=O)NCCNCCNc1ccccc1` was tested, and the GI50 was inactive: > 100 µM.
With `CCOC(=O)CC[C@H](NC(=O)c1ccc(CNc2nc3cc(C(F)(F)F)ccc3nc2C(=O)OCC)cc1)C(=O)OCC` the GI50 was inactive: 66.5 µM.
`CCc1ccccc1N1CCN(C(=O)c2cc(OC)c(OC)c(OC)c2)CC1` was tested, and the GI50 was active: 0.0731 µM.
In the case of `O=C(NN1C(=O)CSC1c1cccc(F)c1)c1ccncc1` (centres undefined), the GI50 is reported as inactive: > 100 µM.
`Cc1cc(S(=O)(=O)Nc2nc(N)n[nH]2)c(SCC(=O)O)cc1Cl` was tested, and the GI50 was inactive: > 10 µM.
For `C=C(C(=O)O)[C@@H]1C[C@@H]2O[C@H]1[C@@H](O)[C@@H](C)CCCC(C)=CCC[C@@]2(C)O`, the GI50 was inactive: > 100 µM.
`O=[N+]([O-])C1Cc2ccccc2OC1c1ccccc1` (centres undefined) was tested, and the GI50 was inactive: > 100 µM.
With `NC(CCP(=O)(O)CCC1C=CC=CC1)C(=O)O` (centres undefined) the GI50 was inactive: > 100 µM.
In the case of `Cc1nc(-c2cc3c(ccc4ccccc43)oc2=O)cs1`, the GI50 is reported as inactive: 84.7 µM.
`CC1CCc2c(sc3ncnc(N/N=C/c4ccc(Cl)c(Cl)c4)c23)C1` (centres undefined) was tested, and the GI50 was inactive: 25.1 µM.
`NCCOc1ccc(/C(=C(/Cl)c2ccccc2)c2ccccc2)cc1` was tested, and the GI50 was inactive: 14.3 µM.
For `C=CCC1C(O[Si](C)(C)C(C)(C)C)C(CO[Si](C)(C)C(C)(C)C)OC1n1ccc(=O)[nH]c1=O` (centres undefined), the GI50 was inactive: 1.66 µM.
For `CC1(C)O[C@@H](CP(c2ccccc2)c2ccccc2)[C@H](CP(c2ccccc2)c2ccccc2)O1`, the GI50 was inactive: 12.2 µM.
`CCOC(=O)c1c(-c2cccc3ccccc23)c(C#N)c(=S)n(C2OC(COC(C)=O)C(OC(C)=O)C(OC(C)=O)C2OC(C)=O)c1C` (centres undefined) was tested, and the GI50 was inactive: > 100 µM.
For `O=C(Cc1nc2ccccc2s1)C(=O)Nc1cccc(C(F)(F)F)c1`, the GI50 was inactive: > 100 µM.
In the case of `CCOP(C)(=O)C(N)Cc1ccc(OC)c(OC)c1` (centres undefined), the GI50 is reported as inactive: > 100 µM.
In the case of `CCOC(=O)C12CCSC1C1(C#N)C(C#N)=CC2(N=P(c2ccccc2)(c2ccccc2)c2ccccc2)n2c(=O)n(-c3ccccc3)c(=O)n21` (centres undefined), the GI50 is reported as inactive: > 100 µM.
With `C1=CCN(c2ccccc2)CC1` the GI50 was inactive: > 100 µM.
In the case of `COC(=O)[C@H]1NC(=O)CCSSC1(C)C`, the GI50 is reported as inactive: > 100 µM.
For `CC1(C)O[C@@H]2[C@@H](COC(=O)c3ccccc3)C[C@@H](C#N)[C@@H]2O1`, the GI50 was inactive: > 100 µM.
`O=C1C(NCCc2cc(Br)c(O)c(Br)c2)=CC(=O)c2ncccc21` was tested, and the GI50 was inactive: 2.38 µM.
For `Cc1ccc2c(c1)C(c1cccc3ccccc13)OC2=O` (centres undefined), the GI50 was inactive: 47.5 µM.
In the case of `C=CCn1c2ccccc2[n+]2cc([N+](=O)[O-])ccc12`, the GI50 is reported as inactive: 51.1 µM.
In the case of `CCOP(=O)(C=C=C1CCC2[C@@H]3CCc4cc(OC)ccc4C3CC[C@]12C)OCC` (some centres undefined), the GI50 is reported as inactive: 16.7 µM.
With `C=C(Cl)C(Cl)(CBr)CCCC(C)C` (centres undefined) the GI50 was inactive: 14.2 µM.
For `O=C1c2c(ccc3c2CCCC3)CC12Cc1ccccc1C2`, the GI50 was inactive: 31 µM.
In the case of `CS(=O)(=O)c1ccc(-c2cc(-c3ccc(S(C)(=O)=O)cc3)[n+](-c3cc(-c4ccccc4)c([O-])c(-c4ccccc4)c3)c(-c3ccc(S(C)(=O)=O)cc3)c2)cc1`, the GI50 is reported as inactive: > 100 µM.
`O=C(NC(=S)Nc1ccccc1)c1ccc([N+](=O)[O-])cc1` was tested, and the GI50 was inactive: > 100 µM.
For `CC(=O)Nc1[nH]c(=O)[nH]c(=O)c1N(C(C)=O)C(C)=O`, the GI50 was inactive: > 100 µM.
`O=c1[nH]nc(Cc2ccccc2)n1/N=C/c1ccc([N+](=O)[O-])o1` was tested, and the GI50 was inactive: 4.72 µM.
With `CCOC(=O)C1C(=O)CC(C)(O)C(C(=O)OCC)C1c1ccc(N(C)C)cc1` (centres undefined) the GI50 was inactive: > 100 µM.
For `C=CCN1CCC(OC(=O)C(O)(/C=C\CC)C2CCCC2)CC1` (centres undefined), the GI50 was inactive: > 100 µM.
With `COC1CCC(OS(C)(=O)=O)CO1` (centres undefined) the GI50 was inactive: > 100 µM.
`CCOc1ccccc1N1CSc2nnc(-c3ccccc3)n2C1` was tested, and the GI50 was inactive: > 100 µM.
For `COC(=O)/C=C(C)/C=C/c1c(C)c(C(C)=O)c(C)n1C`, the GI50 was inactive: > 100 µM.
With `O=C(O)c1ccc(S(=O)(=O)c2ccccc2[N+](=O)[O-])cc1` the GI50 was inactive: > 10 µM.
With `Cc1ccc2[nH]c3c(c2c1)C1CCC(C(C)(C)C)CC1C1C(=O)N(c2ccc4c(c2)OCO4)C(=O)C31` (centres undefined) the GI50 was inactive: 5.06 µM.
`CC(=O)CC(=O)Nc1ccccc1[N+](=O)[O-]` was tested, and the GI50 was inactive: > 100 µM.
With `CC1(C)OC([C@H](O)CO)C([C@H]2NCCS2)O1` (some centres undefined) the GI50 was inactive: > 100 µM.
With `CN1C(=O)C(C)(C)C2(SC(C)(C)C2(C)C)N(C)C1=S` (centres undefined) the GI50 was inactive: > 100 µM.
`CCOC(=O)c1c(N2CCOCC2)[nH]c(=O)c(C(c2ccc(OC)cc2)c2c(O)c(C(=O)OCC)c(N3CCOCC3)[nH]c2=O)c1O` was tested, and the GI50 was inactive: > 100 µM.
With `O=S(=O)(NC(c1ccccc1)(c1cc2ccccc2[nH]1)c1cc2ccccc2n1S(=O)(=O)c1ccccc1)c1ccccc1` (centres undefined) the GI50 was inactive: > 100 µM.
With `CS(=O)(=O)O[C@H]1[C@H](O)c2ccccc2[C@@H]1N=[N+]=[N-]` the GI50 was inactive: > 100 µM.
In the case of `Cc1ccc(Nc2nc(N)nc3c2ncn3C2OC(CO)C(O)C2O)cc1` (centres undefined), the GI50 is reported as inactive: > 100 µM.
With `O=C(OCCN1CCCCC1)C(c1ccccc1)C1(O)CCSCC1` (centres undefined) the GI50 was inactive: > 100 µM.
With `CCOC(=O)C1=C(C)N(c2ccc(Cl)cc2)C2(O)C=CC(O)=C3C(=O)c4ccccc4C(=O)C312` (centres undefined) the GI50 was inactive: 14.7 µM.
With `CCOC(=O)/C(=C\NCC(OCC)OCC)c1nc2ccccc2[nH]1` the GI50 was inactive: 40.4 µM.
With `COC(=O)/C(=C(\C)NC(C)=O)c1c(C(=O)OC)[nH]c2ccccc12` the GI50 was inactive: > 100 µM.
`OC1CC(O)O[C@H](c2ccccc2)C1` (some centres undefined) was tested, and the GI50 was inactive: > 100 µM.
For `C=C(C)C1CC=C(C)C(O)([C@@]2(O)C[C@H](C(=C)C)CC=C2C)C1` (some centres undefined), the GI50 was inactive: 25.9 µM.
In the case of `COC(=O)CC1C[C@H](C#N)N(C(=O)c2ccccc2)C[C@@H]1CC[N+](=O)[O-]` (some centres undefined), the GI50 is reported as inactive: > 100 µM.
`COC(=O)[C@@]1(O)CC(C)C=C1C=O` (some centres undefined) was tested, and the GI50 was inactive: > 100 µM.
In the case of `C=C1CC2OC(=O)C(=C)C2C(O)C2C(=C)CCC12` (centres undefined), the GI50 is reported as inactive: 11.9 µM.
In the case of `O=C1c2ccsc2C(=O)c2sc(CO)cc21`, the GI50 is reported as inactive: 2.17 µM.
`Cc1onc(-c2c(F)cccc2Cl)c1C(=O)N[C@@H]1C(=O)N2[C@@H]1SC(C)(C)[C@@H]2C(=O)O` was tested, and the GI50 was inactive: > 100 µM.
In the case of `NCC1OC(OC2C(N)CC(N)C(O)C2OC2OC(CO)C(O)C2O)C(N)C(O)C1O` (centres undefined), the GI50 is reported as inactive: > 50 µM.
`COc1cc(/C=C\c2ccc(Cl)cc2)cc(OC)c1OC` was tested, and the GI50 was active: 0.436 µM.
For `CCN(CC)C(=S)SS(=O)(=O)c1ccc(N)cc1`, the GI50 was inactive: > 100 µM.
`CN(C)c1ccc(/C=C/c2nc3ccccc3s2)cc1` was tested, and the GI50 was inactive: > 100 µM.

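48-hour exposure; five concentrations; linearly interpolated endpoints. Here, GI50 denotes the concentration required for 50% inhibition of growth.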 Calls of active or inactive are those of the source. Rule as the data show it: active = GI50 up to about 1.1 µM and inactive = higher.
